# Results reported in PMC4336329 (PLoS ONE, 2015).
# Among all 310,000 compounds or so, about 14,000 (4.5%) showed an effect of 50% or more. Effects have a minus sign here. Some of the results follow.
# Target: human ether-à-go-go-related gene (hERG) potassium channel (human, UniProt Q12809)
# Assay: primary screen, population patch clamp on CHO cells stably expressing hERG
# 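Note: peak tail current of the secondary pulse compared with the same well before compound.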
# Sequence of human ether-à-go-go-related gene (hERG) potassium channel (Q12809 whole entry, looked up): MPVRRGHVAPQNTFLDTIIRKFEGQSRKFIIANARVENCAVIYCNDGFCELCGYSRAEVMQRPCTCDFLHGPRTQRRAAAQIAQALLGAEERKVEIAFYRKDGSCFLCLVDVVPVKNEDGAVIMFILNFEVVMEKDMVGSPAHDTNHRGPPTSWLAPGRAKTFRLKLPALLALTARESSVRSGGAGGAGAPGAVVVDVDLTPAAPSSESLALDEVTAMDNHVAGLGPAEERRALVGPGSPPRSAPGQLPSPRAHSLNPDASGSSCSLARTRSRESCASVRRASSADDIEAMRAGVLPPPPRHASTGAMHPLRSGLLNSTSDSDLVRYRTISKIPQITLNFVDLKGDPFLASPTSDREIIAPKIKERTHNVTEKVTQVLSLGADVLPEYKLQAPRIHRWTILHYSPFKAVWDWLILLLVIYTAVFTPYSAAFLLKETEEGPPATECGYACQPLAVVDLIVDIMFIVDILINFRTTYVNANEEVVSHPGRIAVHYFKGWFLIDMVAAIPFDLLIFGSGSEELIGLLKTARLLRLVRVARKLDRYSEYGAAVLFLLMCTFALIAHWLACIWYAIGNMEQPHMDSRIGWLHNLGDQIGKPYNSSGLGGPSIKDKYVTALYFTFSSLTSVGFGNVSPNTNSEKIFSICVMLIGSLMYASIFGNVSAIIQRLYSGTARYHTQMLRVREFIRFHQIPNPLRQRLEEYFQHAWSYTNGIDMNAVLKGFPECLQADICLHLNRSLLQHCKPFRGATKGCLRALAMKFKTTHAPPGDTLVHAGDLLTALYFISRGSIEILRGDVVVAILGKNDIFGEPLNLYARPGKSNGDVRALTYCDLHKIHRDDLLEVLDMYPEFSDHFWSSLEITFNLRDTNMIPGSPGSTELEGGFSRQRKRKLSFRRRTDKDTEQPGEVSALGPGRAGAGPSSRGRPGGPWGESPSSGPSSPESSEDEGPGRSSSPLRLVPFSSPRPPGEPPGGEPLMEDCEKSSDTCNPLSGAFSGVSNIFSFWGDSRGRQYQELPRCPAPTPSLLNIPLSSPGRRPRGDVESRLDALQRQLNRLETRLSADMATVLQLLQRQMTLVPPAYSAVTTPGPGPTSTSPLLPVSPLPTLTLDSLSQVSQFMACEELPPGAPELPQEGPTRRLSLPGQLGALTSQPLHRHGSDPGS
row,SMILES,"hERG current change (%, negative = inhibition) at 10uM [%]"
1,CCc1nnc(NC(=O)CSc2n[nH]c(-c3ccccc3O)n2)s1,-1.32
2,C#Cc1cccc(C(=O)N2CCCC(C(=O)c3ccc(OC)cc3C)C2)c1 (stereo not drawn),-6.8
3,CN1CCN(S(=O)(=O)c2csc(C(N)=O)c2)CC1,13
4,COc1ccc(CNC(=O)COC(=O)CCOc2ccc(C)cc2)cc1OC,1.43
5,COc1ccc(C(C(=O)NC2CCCCC2)N(C(=O)c2ccco2)c2ccccc2C(C)=O)cc1 (stereo not drawn),-1.8
6,Cc1ccc(-n2c3nc(=O)[nH]c(=O)c-3cc3cc([N+](=O)[O-])ccc32)cc1,-57.6
7,Cc1ccc2nc(N3CCN(S(=O)(=O)c4ccc5c(c4)OCCO5)CC3)c(C#N)cc2c1,5.82
8,O=C1NC(=O)C2C1C(c1ccccc1)N1C3C(=O)NC(=O)C3C(c3ccccc3)N21 (stereo not drawn),3.74
9,Cc1nc2sc(C(c3cccc(F)c3)N3CCC(C)CC3)c(O)n2n1 (stereo not drawn),-5.78
10,CCCC12CN3CC(CCC)(CN(C1)C3C(O)C(O)C(O)CO)C2=O (stereo not drawn),-6.74
11,COc1ccc(NC(=S)N/N=C/c2cccn2Cc2ccccc2F)cc1,13.5
12,COc1ccc(N(C)S(=O)(=O)c2ccc3c(c2)NC(=O)CO3)c(OC)c1,2.58
13,CSc1nsc(SCC(=O)Nc2ccc(O)c(C(=O)O)c2)n1,8.17
14,COc1ccc(Cc2noc(CN3CCCC(OCc4ccccn4)C3)n2)cc1OC (stereo not drawn),-6.44
15,CCOC(=O)C1CCN(c2nc3ccccc3n2CC(=O)c2ccccc2)CC1,19.8
16,Cn1c(=O)c2c(nc(NCCCO)n2Cc2cccc(Br)c2)n(C)c1=O,-34.2
17,CC1(C)CC(n2c(NCCO)nc3c(c2=O)C2(CCCC2)Cc2ccccc2-3)CCO1 (stereo not drawn),-1.56
18,CC(Oc1ccc(F)cc1)C(=O)Nc1ccc(N2CCOCC2)cc1N1CCOCC1 (stereo not drawn),-19.8
19,CCOc1ccccc1NS(=O)(=O)c1c[nH]c(C(=O)OC)c1,3.14
20,COc1ccc(NC(=O)NN2CCN(C)CC2)cc1OC,-15.4
21,O=C(CNC(=O)c1cccc(Cl)c1)NCCCSc1ccccc1,-5.81
22,COc1ccc(CNS(=O)(=O)c2c(C)[nH]c(C)c2C(=O)N2CCCCC2)cc1,-4.24

row,SMILES,"hERG current change (%, negative = inhibition) at 10uM [%]"
1,O=C1C=C(c2cc(Cl)cc(Cl)c2)C[C@@H](c2ccc(F)cc2)C1,19.6
2,COC(=O)CCCNC(=O)c1ccc(OC2CCN(CCc3ccccc3)CC2)cc1,-47.7
3,O=c1[nH]c(=O)n(-c2ccccc2)c(O)c1/C=C1/C(c2ccccc2)=Nc2ccccc21,-4.66
4,CCOC(=O)c1sc(NNC(=O)c2ccc(F)cc2)nc1C,-7.13
5,COc1cccc(NC(=O)N2CCCC2C(=O)Nc2ccc3c(c2)OCO3)c1 (stereo not drawn),15.8
6,Cc1nn(Cc2ccc(Br)cc2)c(C)c1NC(=O)c1nn(C)cc1Cl,7.37
7,CS(=O)(=O)c1ccc(-c2cc(Br)sc2-c2ccc(F)cc2)cc1,16.4
8,Cc1cccc(OCC(=O)NCC(=O)N/N=C/c2ccc([N+](=O)[O-])cc2)c1,-11.6
9,CC(/C=C\c1ccccc1)=C/C(=O)[O-],8.24
10,COc1ccc(/C(C)=N/NC(=O)CNC(=O)/C=C\c2ccco2)cc1,6.28
11,Cc1ccnc(NS(=O)(=O)c2ccc(NC(=O)c3cc(-c4ccccc4)nc4ccccc34)cc2)n1,7
12,Cn1cc(CC(=O)NCCCN2CCCC2)c2ccccc21,15.6
13,CSc1ccc(S(=O)(=O)N2CC(=O)Nc3ccccc32)cc1,-0.208
14,CSc1ncc(OCc2ccccc2)c(=O)[nH]1,8.39
15,Cc1nc(CN(C)C(=O)C2CCC(=O)N(CCc3cccc(F)c3)C2)cs1 (stereo not drawn),-7.62
16,COC(=O)c1ccccc1NC(=O)c1cccc(NC(=O)c2ccc(Br)o2)c1C,-15.5
17,Cc1nn(CC(=O)N2CCN(c3ccccc3)CC2)c(=O)c2cccn12,18.1
18,CCc1c(C)nc(SCCOc2ccc(OC)cc2)[nH]c1=O,6.82
19,CCOC(=O)C(C(=O)Nc1ccccn1)C1CCCCC1 (stereo not drawn),-0.427
20,COc1ccc(C[C@H]2CN3C(=NC[C@H]3C)N2CCNC(=O)CCC2CCCCC2)cc1,-69
21,CC1CC(C)CN(C(=O)c2cc3cc(Br)cc(Br)c3o2)C1 (stereo not drawn),28.1
22,COc1cc(OC)c(OC)cc1/C=N/NC(=S)NCCN1CCOCC1,7.35

row,SMILES,"hERG current change (%, negative = inhibition) at 10uM [%]"
1,Fc1ccc(-n2nnc(-c3cnc4ccccc4c3)n2)cc1,1.2
2,CCOc1ccc(C2=Nn3cnnc3SC2)cc1,-14.8
3,Cc1ccn2c(C(=O)c3ccc(Cl)cc3)cnc2c1,4.01
4,C=C(C)Cn1c(CCn2c3ccccc3c3ccccc32)n[nH]c1=S,6.49
5,CCCCCN(C(=O)CSc1n[nH]c(-c2ccc(C)cc2)n1)c1c(N)n(CCCC)c(=O)[nH]c1=O,2.66
6,N#Cc1cccnc1Nc1ccc(Cl)cc1,-9.77
7,CC(C)OCCCn1c(SC(C)C(=O)NC2CC2)nc2ccccc2c1=O (stereo not drawn),-20.9
8,CC(=O)N1CCc2cc(S(=O)(=O)C(C)CC(=O)NCc3ccc(C)o3)ccc21 (stereo not drawn),7.92
9,CCOc1ccc(OCCC(=O)OCC(=O)Nc2ccc(N3CCOCC3)cc2)cc1,17.9
10,CC1=C(C)CC(C(=O)Nc2ccc3c(c2)OCO3)C(C(=O)O)C1 (stereo not drawn),23
11,O=C(CC(C(=O)O)c1cccc(Cl)c1Cl)c1ccccc1 (stereo not drawn),26.2
12,O=C(CN1CCSCC1)N/N=C/c1ccc(Cl)cc1,-12.5
13,O=S(=O)(c1ccccc1)N(F)S(=O)(=O)c1ccccc1,8.14
14,CCN(CC)c1cc(C)c2cc(NC(=O)c3ccccc3OC)ccc2n1,-18.6
15,O=C(Nc1ccc2c(c1)OCO2)Nc1ccccn1,3.25
16,CC(C)C(=O)N1CCC2(CC1)Oc1ccc(Cl)cc1C(=O)C21CC(c2ccc(Cl)cc2)=NO1 (stereo not drawn),-3.73
17,c1ccc(Cc2nnc3sc(-c4ccco4)nn23)cc1,-4.63
18,COc1cccc(CN2CCN(CC(=O)Nc3ccccc3Cl)CC2)c1,-72
19,Brc1cccc(/C=N/Nc2nn[nH]n2)c1,18
20,O=C(C1CCCN(c2ncnc3c2nc2n3CCCCC2)C1)N1CCN(c2ccccc2F)CC1 (stereo not drawn),-72
21,CC(=O)c1c(O)cc(=O)n(-c2ccccc2)c1-c1ccc(C)cc1,19.1
22,CCC(C)N1CCN(C(=O)COc2ccc3ccccc3c2)CC1.O=C(O)C(=O)O (stereo not drawn),-11.1

row,SMILES,"hERG current change (%, negative = inhibition) at 10uM [%]"
1,Cc1ccc(-n2nnc3c(=O)n(CC(=O)N4CCOCC4)cnc32)cc1,-3.25
2,CC1(C)CC(=O)c2sc(NS(=O)(=O)Cc3ccccc3)nc2C1,8.25
3,COC(=O)[C@@]12CCCCN1[C@H](c1ccc(-c3ccc(F)cc3)c(OC)c1)[C@@H]1C(=O)N(C)C(=O)[C@@H]12.O=C(O)C(F)(F)F,-3.45
4,C/C(CC(=O)NC(C)(C)C)=N\NC(=O)c1ccco1,8.86
5,CCC(C)(C)NC(=O)C(c1ccccc1Cl)N(C(=O)CCC(=O)Nc1cc(C)on1)c1ccc(NC(C)=O)cc1 (stereo not drawn),24.7
6,COC(=O)c1cc(NC(=O)CN2CCc3cc4c(cc3C2)OCCCO4)cc(C(=O)OC)c1,1.97
7,O=C1CN=C(c2cccs2)c2c(sc3c2CCCC3)N1,-28.8
8,CCOc1ccc2nc(C(C)O)[nH]c2c1 (stereo not drawn),5.23
9,COc1cc(NC(=O)c2ccco2)c(OC)cc1NC(=O)CSc1nnc(-c2cccs2)n1C,-42.6
10,CC(=O)N1N=C(c2cccnc2)OC1c1ccc(C(C)C)cc1 (stereo not drawn),-30.1
11,COc1ccccc1OCCCn1c(=O)oc2ccc(C)cc21,-45.7
12,COc1ccc(C(=O)CCC(=O)N2CCN(c3ccc(C)cc3)C(C)C2)cc1 (stereo not drawn),16.5
13,O=C(CN1C(=O)COc2ccc(Cl)cc21)NCC1CCCO1 (stereo not drawn),11.2
14,CC(=O)OC(c1nc2ccccc2c(=O)n1C1CC2(OC1=O)c1ccccc1N1C(=O)C(C)(C)N(O)C12)C(C)C (stereo not drawn),-0.51
15,O=C1CSC(=Nc2ccc(F)cc2)N1,6.91
16,Cc1ccc2nc(SCC(=O)N3CCCC3)[nH]c2c1,3.8
17,CCC(C)n1nccc1NC(=O)C(C)Cl (stereo not drawn),5.71
18,COc1cccc(C2NC(=O)N(CCCC(=O)O)C(C)=C2C(=O)OCc2ccccc2)c1 (stereo not drawn),2.01
19,CC(=O)Nc1ccc(/C=C/c2nc(-c3ccccc3O)n[nH]2)cc1,13.3
20,Cn1c(N/N=C/c2cccs2)nc2c1c(=O)n(Cc1ccccc1)c(=O)n2C,-21.2
21,COc1cc(/C=C(/C#N)c2nc3ccccc3[nH]2)ccc1Oc1ncccc1[N+](=O)[O-],-12.5
